Assay results: the supplement of paper PMC11125491
± gives the standard deviation of the averaged measurements. Growth of baker's yeast expressing single-residue variants of Pneumocystis jirovecii dihydrofolate reductase in 8.8 or 44 µM methotrexate (about 75% and 90% inhibition of the wild type). Selection coefficient per generation; 0 = like wild type, above 0 = less sensitive, below 0 = more sensitive or loss of function. No active / inactive call per row; the paper calls resistant above 0.220 (8.8 µM) or 0.243 (44 µM) together with a significance test. At 44 µM about 15% of codons end with one read or none, so the lowest values are floors (replicate rank correlation 0.74; 0.94 at 8.8 µM).

B1: UniProt A0EPZ9; numbered along this chain (parent)
chain: MDWQKSLTLIVALTLSRGIGLKNDLPWKLKSDMMFFSRVTSGLLVTRSTGQMNVVLMGRKTWESLPAHSRPLKNRINVVISRQEVLDLGGGAYHARSLDDALALLSQIYDSTSKIQLNRVFVIGGGELCKAAMEHSRLNRIIATVIHNEVDCDVFFPIDFRSSQSCLPWRKQDHSVLEAWVGSKVPQGKINENGFIYEFEMWIRDI

Variants of: B1
Assay: selection coefficient against synonymous wild-type codons (log2 per generation); higher = faster growth than wild type
Settings: with Saccharomyces cerevisiae carrying the variant on a plasmid
Description: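 Pooled growth of yeast carrying single-residue variants of P. jirovecii dihydrofolate reductase (own DFR1 gene intact), two passages at 30 °C, three cultures, sequenced before and after. Codons with under 15 starting reads are left out; codons of one change are averaged.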

Row | Variant | selection coefficient against synonymous wild-type codons (log2) (methotrexate 8.8 µM) | selection coefficient against synonymous wild-type codons (log2) (methotrexate 44 µM)
1 | A101D | -0.411 ± 0.37 | -0.0784 ± 0.22
2 | A101V | -0.493 ± 0.36 | -0.181 ± 0.27
3 | A101H | -0.592 ± 0.034 | -0.0902 ± 0.044
4 | A101L | -0.842 ± 0.076 | -0.375 ± 0.086
5 | A101C | -0.662 ± 0.058 | -0.332 ± 0.052
6 | A101M | -0.824 ± 0.16 | -0.431 ± 0.039
7 | A101K | -0.715 ± 0.052 | -0.255 ± 0.04
8 | A101E | -0.687 ± 0.14 | -0.327 ± 0.024
9 | A101G | -0.381 ± 0.075 | -0.334 ± 0.13
10 | A101W | -0.827 ± 0.088 | -0.409 ± 0.071
11 | A101R | -0.786 ± 0.033 | -0.281 ± 0.041
12 | D99A | -0.291 ± 0.068 | -0.254 ± 0.054
13 | D99E | -0.126 ± 0.0038 | -0.146 ± 0.21
14 | D99M | -0.598 ± 0.22 | -0.276 ± 0.027
15 | D99Y | -0.566 ± 0.16 | -0.193 ± 0.035
16 | D99F | -0.5 ± 0.23 | -0.1 ± 0.012
17 | D99L | -0.568 ± 0.12 | -0.349 ± 0.088
18 | D99W | -0.589 ± 0.041 | -0.303 ± 0.03
19 | D99I | -0.621 ± 0.11 | -0.231 ± 0.064
20 | D99R | -0.509 ± 0.039 | -0.389 ± 0.061
21 | D99T | -0.244 ± 0.053 | -0.223 ± 0.063
22 | D99K | -0.373 ± 0.064 | -0.332 ± 0.087
23 | D99Q | -0.253 ± 0.043 | -0.113 ± 0.19
24 | D99C | -0.347 ± 0.054 | -0.306 ± 0.12

Row | Variant | selection coefficient against synonymous wild-type codons (log2) (methotrexate 8.8 µM) | selection coefficient against synonymous wild-type codons (log2) (methotrexate 44 µM)
25 | D99N | -0.203 ± 0.022 | 0.211 ± 0.49
26 | D99S | -0.284 ± 0.098 | -0.226 ± 0.09
27 | D99G | -0.349 ± 0.12 | -0.132 ± 0.09
28 | D99V | -0.419 ± 0.049 | -0.294 ± 0.1
29 | D99P | -0.217 ± 0.062 | -0.167 ± 0.1
30 | S106T | -0.102 ± 0.12 | -0.0226 ± 0.089
31 | S106P | -0.013 ± 0.04 | -0.114 ± 0.11
32 | S106Q | 0.0375 ± 0.047 | 0.111 ± 0.0088
33 | S106D | 0.0724 ± 0.039 | 0.0673 ± 0.1
34 | S106F | -0.151 ± 0.13 | -0.0745 ± 0.21
35 | S106I | -0.492 ± 0.094 | -0.186 ± 0.17
36 | S106C | -0.132 ± 0.025 | -0.112 ± 0.09
37 | S106V | -0.281 ± 0.066 | -0.0982 ± 0.21
38 | S106M | -0.165 ± 0.09 | -0.138 ± 0.18
39 | S106L | -0.296 ± 0.04 | -0.167 ± 0.13
40 | S106E | 0.0927 ± 0.036 | 0.0905 ± 0.11
41 | S106R | -0.0913 ± 0.064 | -0.117 ± 0.11
42 | S106K | 0.0761 ± 0.011 | 0.064 ± 0.015
43 | S106W | -0.275 ± 0.015 | 0.0866 ± 0.14
44 | S106A | 0.0354 ± 0.058 | 0.0838 ± 0.14
45 | S106Y | -0.187 ± 0.051 | -0.0769 ± 0.096
46 | S106G | 0.0409 ± 0.07 | 0.547 ± 0.48
47 | S106N | -0.0481 ± 0.057 | 0.0319 ± 0.077
48 | L102W | -0.103 ± 0.042 | -0.023 ± 0.17

Row | Variant | selection coefficient against synonymous wild-type codons (log2) (methotrexate 8.8 µM) | selection coefficient against synonymous wild-type codons (log2) (methotrexate 44 µM)
49 | L102D | -0.637 ± 0.12 | -0.246 ± 0.062
50 | L102R | -0.64 ± 0.15 | -0.251 ± 0.091
51 | L102H | -0.629 ± 0.14 | -0.196 ± 0.041
52 | L102K | -0.602 ± 0.099 | -0.229 ± 0.039
53 | L102P | -0.668 ± 0.046 | -0.165 ± 0.04
54 | L102V | -0.353 ± 0.14 | -0.137 ± 0.4
55 | L102T | -0.69 ± 0.16 | -0.208 ± 0.13
56 | L102M | -0.0864 ± 0.019 | -0.116 ± 0.038
57 | L102I | -0.101 ± 0.012 | -0.236 ± 0.13
58 | L102Y | -0.0433 ± 0.0073 | -0.0507 ± 0.081
59 | L102C | -0.624 ± 0.1 | -0.386 ± 0.056
60 | L102E | -0.709 ± 0.19 | -0.291 ± 0.027
61 | L102S | -0.749 ± 0.072 | -0.231 ± 0.11
62 | L102G | -0.714 ± 0.078 | -0.316 ± 0.098
63 | L102F | 0.252 ± 0.02 | 0.372 ± 0.014
64 | L102A | -0.651 ± 0.13 | -0.192 ± 0.15
65 | D110G | -0.119 ± 0.026 | -0.0359 ± 0.076
66 | D110M | -0.26 ± 0.047 | -0.244 ± 0.068
67 | D110T | -0.0683 ± 0.062 | -0.0816 ± 0.16
68 | D110W | 0.207 ± 0.082 | 1.28 ± 0.1
69 | D110Q | -0.121 ± 0.036 | -0.185 ± 0.19
70 | D110S | -0.0646 ± 0.084 | 0.0392 ± 0.073
71 | D110K | -0.0315 ± 0.14 | -0.261 ± 0.076
72 | D110A | -0.166 ± 0.046 | -0.157 ± 0.12

Row | Variant | selection coefficient against synonymous wild-type codons (log2) (methotrexate 8.8 µM) | selection coefficient against synonymous wild-type codons (log2) (methotrexate 44 µM)
73 | D110R | -0.224 ± 0.1 | 0.000768 ± 0.095
74 | D110L | -0.245 ± 0.042 | -0.107 ± 0.12
75 | D110E | -0.0795 ± 0.018 | -0.049 ± 0.042
76 | D110C | -0.159 ± 0.03 | 0.498 ± 0.14
77 | D110V | -0.237 ± 0.05 | -0.183 ± 0.12
78 | T112A | -0.0732 ± 0.049 | -0.0408 ± 0.12
79 | L105F | -0.512 ± 0.1 | -0.166 ± 0.031
80 | L105Q | -0.666 ± 0.096 | -0.232 ± 0.045
81 | L105S | -0.452 ± 0.18 | -0.214 ± 0.08
82 | L105G | -0.618 ± 0.2 | -0.287 ± 0.11
83 | L105V | -0.0336 ± 0.075 | -0.0226 ± 0.057
84 | L105A | -0.267 ± 0.095 | -0.239 ± 0.14
85 | L105P | -0.519 ± 0.19 | -0.103 ± 0.042
86 | L105K | -0.759 ± 0.018 | -0.187 ± 0.11
87 | L105D | -0.578 ± 0.047 | -0.12 ± 0.064
88 | L105R | -0.667 ± 0.18 | -0.213 ± 0.17
89 | L105M | -0.313 ± 0.042 | -0.294 ± 0.14
90 | L105Y | -0.525 ± 0.048 | -0.0234 ± 0.064
91 | L105W | -0.709 ± 0.17 | -0.405 ± 0.04
92 | L105E | -0.834 ± 0.051 | -0.329 ± 0.027
93 | L105C | -0.226 ± 0.061 | -0.257 ± 0.039
94 | L105T | -0.433 ± 0.12 | -0.309 ± 0.072
95 | I108K | -0.141 ± 0.046 | -0.233 ± 0.19
96 | I108P | -0.538 ± 0.087 | -0.106 ± 0.038

Row | Variant | selection coefficient against synonymous wild-type codons (log2) (methotrexate 8.8 µM) | selection coefficient against synonymous wild-type codons (log2) (methotrexate 44 µM)
97 | I108Q | -0.258 ± 0.1 | -0.281 ± 0.075
98 | I108D | -0.617 ± 0.17 | -0.184 ± 0.023
99 | I108C | -0.467 ± 0.14 | -0.146 ± 0.09
100 | I108Y | -0.299 ± 0.12 | -0.099 ± 0.052
101 | I108T | -0.391 ± 0.14 | -0.107 ± 0.13
102 | I108F | -0.129 ± 0.038 | -0.0376 ± 0.1
103 | I108E | -0.241 ± 0.036 | -0.292 ± 0.2
104 | I108W | -0.163 ± 0.043 | -0.214 ± 0.16
105 | I108R | -0.256 ± 0.064 | -0.238 ± 0.12
106 | I108M | 0.00166 ± 0.047 | 0.00625 ± 0.035
107 | I108N | -0.416 ± 0.13 | -0.104 ± 0.1
108 | I108V | -0.185 ± 0.041 | -0.146 ± 0.14
109 | I108G | -0.594 ± 0.071 | -0.389 ± 0.036
110 | I108S | -0.508 ± 0.12 | -0.138 ± 0.11
111 | I108L | 0.0345 ± 0.032 | 0.131 ± 0.1
112 | I108A | -0.466 ± 0.092 | -0.198 ± 0.074
113 | L98Y | -0.502 ± 0.2 | -0.156 ± 0.12
114 | L98W | -0.398 ± 0.032 | -0.317 ± 0.046
115 | L98V | -0.217 ± 0.049 | -0.172 ± 0.17
116 | L98T | -0.731 ± 0.047 | -0.228 ± 0.036
